# PubChem BioAssay AID1159614 (National Center for Advancing Translational Sciences (NCATS), 2016)
# Screen size: about 45,000 compounds; about 65 (0.1%) were called active. Calls come from the whole dose curve; as a rule, active = well fitted activation curve with a large enough effect; inconclusive = small, poorly fitted or top-dose-only effect; inactive = no such curve, though single readings can be large or run the other way. Some of the results follow.
# Molecular target: Galactocerebrosidase (Homo sapiens) (UniProt P54803)
# Chain of UniProt P54803 (P54803 whole entry, looked up): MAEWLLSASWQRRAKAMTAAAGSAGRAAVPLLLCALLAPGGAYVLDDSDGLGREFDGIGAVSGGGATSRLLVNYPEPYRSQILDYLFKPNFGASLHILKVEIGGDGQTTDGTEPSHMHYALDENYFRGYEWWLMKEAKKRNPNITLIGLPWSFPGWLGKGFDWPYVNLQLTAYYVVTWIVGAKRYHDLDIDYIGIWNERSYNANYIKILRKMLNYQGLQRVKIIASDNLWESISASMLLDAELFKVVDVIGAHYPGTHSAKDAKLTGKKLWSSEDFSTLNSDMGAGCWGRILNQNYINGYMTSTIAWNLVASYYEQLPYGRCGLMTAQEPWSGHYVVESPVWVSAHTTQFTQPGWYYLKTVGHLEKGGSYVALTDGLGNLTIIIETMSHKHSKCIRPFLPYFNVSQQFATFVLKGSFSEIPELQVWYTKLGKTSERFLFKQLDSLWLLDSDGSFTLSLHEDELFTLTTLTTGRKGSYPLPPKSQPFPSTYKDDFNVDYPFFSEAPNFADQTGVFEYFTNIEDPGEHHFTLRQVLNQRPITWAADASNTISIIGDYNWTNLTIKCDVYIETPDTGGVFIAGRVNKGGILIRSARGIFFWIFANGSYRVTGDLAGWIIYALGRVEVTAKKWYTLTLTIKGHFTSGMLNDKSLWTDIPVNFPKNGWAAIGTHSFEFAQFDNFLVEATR
# Assay: A Novel Cell-Based Assay to Identify Small Molecules for B -Galactocerebrosidase; note: 0% is about no effect; nearly all actives have a fitted effect of over 65% in size
# Settings: 145M-Twi-hGALC-G270D cells (Twitcher mouse brain line with human GALC G270D), HMU-beta-Gal fluorescence, 48 h; series mostly up to 57.5 µM; activation: at the top concentration
# How it was run: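 Mutant human GALC (G270D), stably expressed in a Twitcher mouse brain cell line lacking endogenous GALC, is measured in live-treated cells via 6-hexadecanoylamino-4-methylumbelliferyl-β-galactoside hydrolysis (0.1 mM final, pH 5.2) with fluorescent detection.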
row,Compound,activation
1,CCOc1ccc(-c2csc(-c3nc(-c4ccc(Br)s4)cs3)n2)cc1,inactive: -14.8%
2,COc1cccc(C(c2c(O)cc(C)n(Cc3ccco3)c2=O)N2CCC(C)CC2)c1 (stereo unspecified),inactive: -11%
3,CNCC(O)c1ccc(O)c(O)c1 (stereo unspecified),inactive: 23.9%
4,Cc1cccc(CS(=O)(=O)Cc2ccc(C(=O)NC(C)c3ccccc3)o2)c1 (stereo unspecified),inactive: 2.74%
5,Cc1ccc2c(c1)-c1c(c(C(=O)NCCc3ccccc3)nn1C)CS2,inactive: -38.3%
6,COc1cccc(CNC(=O)Cn2c(SCC(=O)Nc3ccc(F)cc3)nc3ccccc32)c1,inactive: -16.3%
7,CCCCN(CC)CCCNC(=O)C1CCN(c2nc3ccc(CC)cc3s2)CC1,inactive: -24.5%
8,CCCN(C(=O)Cc1c(C(=O)O)[nH]c2ccc(Cl)cc12)c1ccc(OCC)cc1,inactive: -13.5%
9,CC(C)CCNC(=O)c1cccc(-n2cnc3cccnc32)c1,inactive: 9.34%
10,Cc1ccc(C(=O)COC(=O)c2cccc(NC(=O)c3ccc(Br)cc3)c2)cc1,inactive: -10.9%
11,Cc1ccc(C)c(N2CCN(S(=O)(=O)c3ccc4c(c3)CC(=O)N4C)CC2)c1,inactive: -10.7%
12,Cc1cccc(N(CC(=O)Nc2cccc(Cl)c2C)S(C)(=O)=O)c1C,inactive: -36.8%
13,Cc1ccc(S(=O)(=O)NCC(c2ccco2)N2CCN(c3ccccc3F)CC2)cc1 (stereo unspecified),inactive: -14.8%
14,COc1ccc(CCC(=O)NCc2nc3cccnc3n2Cc2ccc(C)cc2)cc1,inactive: -8.72%
15,CCOCCCNC(=O)c1[nH]c2cc(OC)ccc2c1Sc1ccccc1,inactive: -28.2%
16,CCCCCNS(=O)(=O)c1ccc(N2CCCCS2(=O)=O)cc1,inactive: 5.6%
17,COc1ccc(NC(=O)Cn2c(=O)n(CCC(=O)NCCc3ccc(OC)c(OC)c3)c(=O)c3ccccc32)cc1Cl,inactive: -7.83%
18,CCCN1C(=O)CN(C2CCCCC2)C(=O)C1c1ccc(OC)c(OC)c1 (stereo unspecified),inactive: 4.27%
19,COC(=O)c1c(NC(=O)c2nc(SCc3ccc(C)cc3)ncc2Cl)sc2c1CCCC2,inactive: 2.97%
20,Cc1cccc(-n2ncc(C(=O)N3CCN(C(=O)c4ccco4)CC3)c2C2CCN(C(=O)OC(C)(C)C)CC2)c1,inactive: -6.33%
21,COc1cccc([C@@H]2Nc3ccc(C(=O)O)cc3[C@@H]3C=CC[C@@H]32)c1OC,inactive: -12.8%

row,Compound,activation
1,Cc1ccc2c(=O)cc(C(=O)Nc3ccc(S(=O)(=O)Nc4onc(C)c4C)cc3)oc2c1,inactive: -11.1%
2,O=C(NC1CC1)c1ccc(Cn2c(SCc3ccccc3F)nc3cccnc32)cc1,inactive: -24.8%
3,Cc1nn(CCC(=O)NCc2ccc(N(C)C)cc2)c(=O)c2nn(-c3ccccc3)c(C)c12,inactive: 1.74%
4,COc1cccc(NC(=O)Cn2nc3c4ccccc4n(Cc4cccc(F)c4)cc-3c2=O)c1,inactive: 1.52%
5,Cc1ccc(N2CC(NC(=O)c3ccc(Br)o3)CC2=O)cc1C (stereo unspecified),inactive: -7.85%
6,CC(NC(=O)C(=O)Nc1c2c(nn1-c1ccccc1)CSC2)c1ccccc1 (stereo unspecified),inactive: -6.41%
7,Cc1ccc2c(c1)c(=O)c(C(=O)c1ccncc1)cn2CC(=O)Nc1ccc(C(C)C)cc1,inactive: -17.9%
8,COc1ccc2nc3oc(C(=O)N(C)c4ccc(Cl)cc4)cc3cc2c1,inactive: -17.8%
9,CCc1nnc(NC(=O)CSc2nccn2Cc2ccc(F)cc2)s1,inactive: 6.5%
10,COc1ccc(N2CCN(CC(O)COc3ccc(C(C)C)c(C)c3)CC2)cc1 (stereo unspecified),inactive: -24.1%
11,CCOc1ccc(NCc2cccn2-c2nnc(N3CCC(C(=O)NCc4ccc(C)cc4)CC3)s2)cc1,inactive: 1.91%
12,CC(C)(C)c1ccc(C(=O)Nc2ccc(-c3nc4cc(Cl)ccc4o3)cc2)cc1,inactive: -16.8%
13,Cc1nnc(N2CCN(c3ccccc3F)CC2)c2c1nnn2Cc1ccccc1Cl,inactive: -8.07%
14,COc1ccc(CNc2oc(COc3cccc(C)c3)nc2C#N)cc1,inactive: -12.7%
15,O=C(Nc1ccc(NC(=O)c2ccc(Br)cc2)c(Cl)c1)c1ccc(Br)cc1,inactive: -9.59%
16,COc1ccccc1-c1nnc(C2CCN(S(=O)(=O)c3ccccc3)CC2)o1,inactive: -8.83%
17,Cn1cc(S(=O)(=O)N2CCCC2)cc1C(=O)Nc1ccc(C(F)(F)F)cc1,inactive: -5.12%
18,COc1ccc(C(=O)Nc2nc3ccc(S(=O)(=O)N4CCCC4)cc3s2)cc1,inactive: -17.1%
19,COc1cccc(N2CCN(C(=O)Cn3cnc4onc(-c5ccc(F)cc5)c4c3=O)CC2)c1,inactive: -19.5%
20,CCCCCn1c(=O)[nH]c2cc(C(=O)Nc3ccc(OC)c(OC)c3)ccc2c1=O,inactive: -25.7%
21,COc1cccc(-c2nc(CS(=O)(=O)CC(=O)NCCCN3CCN(C)CC3)c(C)o2)c1,inactive: -16.1%

row,Compound,activation
1,COc1cccc2cc(-c3nnc(-c4ccc(Cl)cc4)o3)c(=O)oc12,inactive: 10.2%
2,CCc1nn(CC(=O)N2CCN(c3cccc(C(F)(F)F)c3)CC2)c(=O)c2cc3occc3n12,inactive: -9.81%
3,Cc1cccc(Cn2c(SCc3ccc(C(=O)NCCc4ccccc4)cc3)nc3cccnc32)c1,inactive: -11.3%
4,CC(=O)Nc1ccc(S(=O)(=O)N2CCN(c3ccccc3)CC2)cc1,inactive: -33.6%
5,COc1ccc(C)cc1NC(=O)C1CCCN(S(=O)(=O)c2ccc3c(c2)oc(=O)n3C)C1 (stereo unspecified),inactive: -11.1%
6,CCOC(=O)CC(=O)CSc1nc2ccccc2c(=O)n1CCc1ccccc1,inactive: -8.65%
7,COc1cccc(-c2nnc3n(CCc4ccccc4)c(=O)c4ccccc4n23)c1O,inactive: -21.6%
8,Cn1c(=O)c(=O)n(C)c2cc(N3CCCC3)c(NC(=O)c3ccc(C(C)(C)C)cc3)cc21,inactive: -14.5%
9,COc1cccc(CNC(=O)CN(c2ccc(C(C)C)cc2)S(=O)(=O)c2c(C)n[nH]c2C)c1,inactive: -10.6%
10,CC(=O)Nc1cccc(NC(=O)C2(c3cccs3)CCOCC2)c1,inactive: -13%
11,Cc1ccc(SCc2nc(-c3ccc(C(=O)NCc4ccccc4Cl)cc3)oc2C)cc1,inactive: -7.58%
12,CCOC(=O)C1=C(c2ccccc2)Nc2ncnn2C1c1ccc(Cl)cc1 (stereo unspecified),inactive: -12.1%
13,O=C(CCC1N=C2c3ccccc3N=C(SCC(=O)Nc3ccccc3F)N2C1=O)NCc1cccs1 (stereo unspecified),inactive: -17%
14,COc1ccc(S(=O)(=O)N(CCc2ccccc2)CC(=O)Nc2cc(C)ccc2C)cc1,inactive: -11.9%
15,Cc1cccc(NC(=O)CSc2cn(CC(=O)N3CCOCC3)c3ccccc23)c1,inactive: -12.1%
16,CCn1cc(C(=O)NCCOC)c(=O)c2cc(S(=O)(=O)N3CCOCC3)ccc21,inactive: -14.2%
17,CCc1ccc(NC(=O)C2CCN(S(=O)(=O)c3c(C)noc3/C=C/c3cccs3)CC2)cc1,inactive: -8.26%
18,CCOC(=O)c1cccc(NS(=O)(=O)c2c(C)nc3sc(C)cn3c2=O)c1,inactive: -5.28%
19,O=C(c1ccc2c(c1)N(Cc1cccc(Cl)c1)C(=O)c1ccccc1S2(=O)=O)N1CCC(Cc2ccccc2)CC1,inactive: 0.0209%
